Source: article PMC6919601, “Identification of Plasmodium dipeptidyl aminopeptidase allosteric inhibitors by high throughput screening” (PLoS ONE, 2019)
About 230 (0.21%) of roughly 110,000 compounds showed an effect of 50% or more. This is one part of the list.

Target: DPAP1 (Plasmodium falciparum, UniProt Q8IIJ9)
Experiment: primary screen, percent inhibition; read by cleavage of a fluorogenic dipeptide substrate; higher = more effect of the substance
Parameters: species or system P. falciparum D10 trophozoite lysates; single well
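Further: 30 min substrate incubation versus DMSO and 10 µM JCP410 controls.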

DPAP1, sequence (Q8IIJ9 whole entry, looked up): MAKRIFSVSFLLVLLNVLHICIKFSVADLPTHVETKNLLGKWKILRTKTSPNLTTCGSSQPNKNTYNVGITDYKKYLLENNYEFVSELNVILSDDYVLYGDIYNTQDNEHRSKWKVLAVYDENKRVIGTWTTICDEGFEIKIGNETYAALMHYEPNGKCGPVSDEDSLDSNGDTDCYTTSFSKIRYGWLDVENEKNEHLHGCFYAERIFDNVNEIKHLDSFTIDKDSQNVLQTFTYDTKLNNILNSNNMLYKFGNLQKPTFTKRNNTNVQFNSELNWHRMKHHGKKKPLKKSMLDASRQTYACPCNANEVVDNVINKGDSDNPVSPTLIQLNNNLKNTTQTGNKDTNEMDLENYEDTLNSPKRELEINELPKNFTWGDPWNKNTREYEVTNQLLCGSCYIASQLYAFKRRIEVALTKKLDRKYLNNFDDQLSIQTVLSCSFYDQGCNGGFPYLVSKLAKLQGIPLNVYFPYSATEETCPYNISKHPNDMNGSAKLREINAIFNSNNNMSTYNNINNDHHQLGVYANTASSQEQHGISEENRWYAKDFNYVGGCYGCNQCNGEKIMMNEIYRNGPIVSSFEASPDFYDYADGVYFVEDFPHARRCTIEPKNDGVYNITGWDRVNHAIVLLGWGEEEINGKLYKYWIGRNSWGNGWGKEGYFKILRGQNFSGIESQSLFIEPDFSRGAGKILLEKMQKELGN

Row | Compound | % Inhibition @ 10 uM [%]
1 | CCc1ccc(C2C(C(=O)OC)=C(C)N=C(C)/C2=C(/O)OC)cc1 (stereo not drawn) | 4.35
2 | CCC(Oc1ccccc1)C(=O)Nc1ccc(OC)cc1OC (stereo not drawn) | 2.36
3 | Cc1ccc(C(=O)N2CCN(C(=O)CSc3nc4ccccc4s3)C2)cc1 | -3.5
4 | CC(C)Cc1ccc(C(C)C(=O)NC(C)C)cc1 (stereo not drawn) | 0.00178
5 | CC(C)(C)C1=Nn2c(nnc2-c2ccc(Cl)cc2Cl)SC1 | 6.05
6 | c1ccc(Nc2c3ccccc3nc3ccccc23)nc1 | -8.71
7 | O=P(O)(CN1CCOCC1)CN1CCOCC1 | -4.01
8 | CC1=C(C(=O)NCc2cccnc2)C2(CCCCC2)OC1=O | 1.55
9 | Cc1cc(C)c2c(N)c(-c3nc4ccccc4[nH]3)sc2n1 | 2.18
10 | CN(C)c1nc(N)nc(-c2ccco2)n1 | -3.38
11 | COc1ccc(CCNC(=O)CCc2c(C)nc3ncnn3c2O)c(OC)c1 | -4.97
12 | COc1ccc(S(=O)(=O)N2CCC(C(N)=O)CC2)c2ccccc12 | -2.66
13 | O=C(O)CCCCCNC1CCS(=O)(=O)C1 (stereo not drawn) | 0.0539
14 | COc1ccc(-c2[nH]ncc2/C=C/c2cc(C(F)(F)F)nc(O)n2)cc1 | -1.69
15 | Cc1cc(C)n(C(=O)CCC(=O)NCc2ccccc2)n1 | -5.28
16 | O=C(Cn1ncc2c3ccccc3nc-2c1O)NCCC1=CCCCC1 | -3.47
17 | CC1=C(C)CC(C(=O)Nc2sc3c(c2C(N)=O)CCCC3)C(C(=O)O)C1 (stereo not drawn) | 3.67
18 | CC(C)NC(=O)c1nnc(-c2ccccc2)o1 | 2
19 | O=C1CCCc2sc([N+](=O)[O-])cc21 | -3.82
20 | O=C(NC(c1ccccc1)c1ccccc1)c1ccc(Br)cc1 | -1.93
21 | CCc1c(C)sc(NC(=O)c2ccccc2OC)c1C(N)=O | 2.01
22 | CN1CCc2c1nc1ccccc1c2NC(=O)C12CC3CC(CC(C3)C1)C2 | 27.1
23 | CCOc1ccc(S(=O)(=O)Nc2ccc(O)c(C(=O)O)c2)cc1 | 2.86
24 | CN1C(=O)S/C(=C/c2ccc(N3CCOCC3)cc2)C1=O | 5.31
25 | CCC(C)c1ccc(O[C@@H]2O[C@H](CO)[C@@H](O)[C@H](O)[C@H]2NC(C)=O)cc1 (stereo partly drawn) | 1.64
26 | O=C(CCCCC(=O)NC1CCCC1)NC1CCCC1 | -2.77

Row | Compound | % Inhibition @ 10 uM [%]
27 | Cc1cc2c(cc3c(SCc4nc(-c5ccccc5F)oc4C)nncn32)o1 | 0.0525
28 | Cc1occc1C(=O)NCc1ccc(Cl)cc1 | 1.92
29 | O=C(NC1(Cc2ccccc2F)N=C2C=CC=CN2C1=O)c1ccccc1 (stereo not drawn) | -0.637
30 | CCc1nc(C)ccc1O | -0.128
31 | Cn1c(=O)c2c(-c3ccccc3Br)n(-c3ccc4c(c3)nc(CO)n4C)cc2n(C)c1=O | 0.758
32 | CCCC12CN3CC(CCC)(CN(C1)C3C(O)C(O)C(O)C(O)CO)C2=O (stereo not drawn) | 2.95
33 | COc1ccc(/C=C2\SC(=O)N(C)C2=O)c(OC)c1 | -6.25
34 | CCOC(=O)NC(=O)c1cn(Cc2ccccc2)c(=O)n(C)c1=O | 2.92
35 | CCN(CC)c1ccc(NC(=O)Cc2ccc(OC)cc2)cc1 | -5.95
36 | Cc1c(C(=O)NCc2ccccc2Br)cc(-c2ccccc2)n1C | 1.68
37 | O=C(c1ccc(F)cc1)N1CCC(N2CCCCCC2)CC1 | -3.33
38 | CC(C)CC(C(=O)NCC#N)c1cccc(-c2csc(N3CCNCC3)n2)c1 (stereo not drawn) | 4.63
39 | O=C(NCCSc1c[nH]c2ccccc12)c1ccc(S(=O)(=O)N2CCCCC2)cc1 | -0.228
40 | O=C(O)c1ccccc1C(=O)N1CCN(c2ccccc2)CC1 | 0.956
41 | Nc1ncnc2c1nc(S(=O)(=O)O)n2Cc1ccccc1 | -1.69
42 | COc1cc(OC)c(OC)cc1/C=C1/NC(=O)NC1=O | 3.6
43 | CCCn1c(CCC(=O)NC2CCCCCC2)nc2cccnc21 | -6.67
44 | CC(C)c1c(C#N)c(N)nc(SCC(=O)c2ccc(Cl)c(Cl)c2)c1C#N | -4.26
45 | CCOC(=O)c1nnc(-c2ccccc2)o1 | -3.34
46 | Cc1ccc(OCC(=O)NC2CCCC2)cc1 | -2.27
47 | Cc1cccc(Oc2coc3cc(OCC(=O)N4CCCCC4)ccc3c2=O)c1 | 3.27
48 | Cc1cc(C)n(C(=O)c2ccncc2)n1 | -3.33
49 | COc1cc(/C=C/C(=O)O)cc(S(=O)(=O)N2CCOCC2)c1OC | 3.06
50 | N#CC1=C(N)Oc2[nH]nc(-c3ccc(F)cc3)c2C1c1c[nH]nc1-c1ccc(F)cc1 (stereo not drawn) | 0.777
51 | C=CCOc1ccc(C2C(C#N)=C(N)OC3=C2C(=O)CC(C)(C)C3)cc1 (stereo not drawn) | -0.99
52 | CCOc1ccc(C2CC(=O)NC3=C2C(=O)CCC3)cc1Cl (stereo not drawn) | -1.29

Row | Compound | % Inhibition @ 10 uM [%]
53 | Cc1cc(C)c(-c2c(O)c3cccc4c3n(c2=O)CCC4)c(C)c1 | -4.67
54 | O=C(c1cc2nc(-c3ccc4c(c3)OCO4)cc(C(F)(F)F)n2n1)N1CCCCC1 | 2.25
55 | O=C(c1cc(-c2ccccc2)c(N2CCOCC2)s1)N1CCCC1 | -3.34
56 | CCCc1cc(O)n2nc(SC)nc2n1 | -2.91
57 | CC(C)c1ccc(OCCOCCN2CCNCC2)cc1 | -3.53
58 | CCCCC(=O)Nc1cccc(NC(=O)CCCC)n1 | 2.7
59 | CC1CN(c2nc3c(c(=O)n(C)c(=O)n3C)n2C)CC(C)O1 (stereo not drawn) | 1.9
60 | Cc1ccc(C)c(NS(=O)(=O)Cc2ccccc2)c1 | -0.446
61 | COc1ccccc1C(=O)NC(C)c1ccc2c(c1)OCO2 (stereo not drawn) | -5.81
62 | OC1(c2ccc(Cl)cc2)CCN(Cc2ccc(F)c(F)c2)CC1 | -7.42
63 | Cc1ccc(C(=O)NCc2nc(-c3ccccc3)no2)cc1C | -2.99
64 | CC(NS(=O)(=O)c1ccc(OCC(=O)Nc2c(F)cccc2F)cc1)c1ccccc1 (stereo not drawn) | -6.25
65 | COc1ccc(N(CC(=O)NC(C)(C)C)S(C)(=O)=O)cc1Cl | 3.17
66 | CSc1nc(Oc2ccc(F)cc2)cc(-n2ncc(C#N)c2N)n1 | 1.82
67 | CC1(C)CC2=Nc3ccccc3N(C(=O)Cc3ccccc3)C(c3ccco3)C2=C(O)C1 (stereo not drawn) | 0.0538
68 | COc1ccc(C2=NN(CC(=O)NCCN(C)CCc3ccccc3)C(=O)CC2)cc1 | 3.24
69 | COCCNC(=O)C(C)n1nc(C)c2sc3ccccc3c2c1=O (stereo not drawn) | -4.93
70 | Cc1ccc(Cc2nc(O)c3nnn(Cn4nnc(-c5ccccc5)n4)c3n2)cc1 | -5.08
71 | N#CCNC(=O)[C@@H](CCc1cccc(F)c1)NC(=O)OCc1ccccc1 | -6.56
72 | CC1=C(C#N)C(c2ccccc2C(F)(F)F)C2=C(O)CC(C)(C)CC2=N1 (stereo not drawn) | -0.711
73 | CCOc1ccc(CCNC(=O)CCn2ccc3cc(S(=O)(=O)N4CCCC4)ccc32)cc1 | -4.77
74 | CC(C)Cc1cc(C(=O)NCc2ccccc2)no1 | -5.77
75 | CC1(C)CC(=O)C2=C(C1)N(c1cccnc1)C(N)=C(C#N)C2c1ccc(Cl)cc1 (stereo not drawn) | 3.62
76 | Cc1ccc(S(=O)(=O)N2CCOCC2)cc1C(=O)Nc1cccnc1 | 1.26
77 | Cc1ccccc1N1C(=O)C2C3C=CC(C3=C3CCCC3)C2C1=O (stereo not drawn) | -2.07
78 | O=C1C(Cl)=C(NCC2CCCO2)C(=O)N1C1CCCCC1 (stereo not drawn) | 3.25

Row | Compound | % Inhibition @ 10 uM [%]
79 | CC1CC(C)CN(C(=O)c2cccc3c2SCCC3=O)C1 (stereo not drawn) | -0.788
80 | COc1ccc(Cc2nnc(NC(=O)C3c4ccccc4Oc4ccccc43)s2)cc1 | 0.279
81 | CCN(CC)CCCN1C(=O)C(O)=C(C(=O)c2cc3ccccc3o2)C1c1ccc(C(=O)OC)cc1 (stereo not drawn) | -5
82 | Cc1ccc(NC(=O)C2CC(O)CN2C(=O)OC(C)(C)C)cc1 (stereo not drawn) | 3.24
83 | CCCn1c(SCc2nc(-c3cccs3)no2)nnc1-c1ccncc1 | 4.47
84 | COc1cccc(NC(=O)c2ccc3ccccc3c2)c1 | -2.36
85 | CN(C)c1ccc(Cc2c(NC=O)ccc3ccccc23)cc1 | 2.22
86 | N#Cc1cnc(SCc2cc(=O)n3ccccc3n2)nc1N | -5.64
87 | CC1CN(c2sc(S(C)(=O)=O)nc2S(=O)(=O)c2ccc(Cl)cc2)CC(C)O1 (stereo not drawn) | -2.25
88 | COc1cc2c(cc1OC)C(C(=O)NC(C)CCc1ccccc1)C1c3ccccc3CCN1C2=O (stereo not drawn) | -8.09
89 | O=C(c1ccccc1Cl)N1CCN(c2ccc([N+](=O)[O-])cc2)CC1 | -0.127
90 | CCOC(=O)Nc1ccc2c(c1)Nc1ccccc1CC2 | -4.49
91 | CC1CCN(c2nc3ccc(C(=O)NCc4cccc(Br)c4)cc3s2)CC1 | 0.0882
92 | CN1CCN(C(=O)CN2C(=O)c3cccc4cccc2c34)CC1 | 2.48
93 | COc1ccc(NC(=O)c2ccc(N3C(=O)C4C5C=CC(C5)C4C3=O)cc2)cc1 (stereo not drawn) | -0.231
94 | CC1(C)CC(=O)C(/C=N/CC2CCN(C(=O)Cc3ccc(Cl)cc3)CC2)=C(O)C1 | -1.59
95 | C=CCOc1ccc(C(=O)C2=C(O)C(=O)N(CCN(CC)CC)C2c2ccccc2F)c(C)c1 (stereo not drawn) | 4.54
96 | CC(C)(C)NC(=O)c1ccc(-n2nc(C(F)(F)F)c3c2-c2ccoc2CC3)cc1 | 2.31
97 | O=C1N=C(c2ccccc2)C(c2ccccc2)N1 (stereo not drawn) | -1.77
98 | Cc1ccc(NC(=O)c2sc3nc(-c4ccncc4)ccc3c2N)cc1Cl | 3.5
99 | O=C(NCCC1=CCCCC1)C1CCN(c2ncnc3c2sc2cccc(F)c23)CC1 | 1.03
100 | Cc1oc(-c2cccs2)nc1CS(=O)CC(=O)NCc1ccc2c(c1)OCO2 (stereo not drawn) | 3.19
101 | Cc1[nH]c2ccccc2c1C(c1ccncc1)N1CCCC1 (stereo not drawn) | -2.92
102 | CC(=O)Nc1ccc(C(=O)N(C)C(C(=O)Nc2ccc(C)cc2)c2ccccn2)cc1 (stereo not drawn) | 3.65
